Results published in publication PMC12136788.
The other results are listed elsewhere or left out.

B1: chr2:130346496:130346597:+|3pUTR|ENSG00000136718|unk|total|mutant (ssRNA)
RNA: GGGAGUUCUACAGUCCGACGAUCACUCAGUCAGGACAUGGACUUGGAACUCAGGAUGGGGCUGUCACCGACAGACCCACCAGCCGGAACUGUCACAGAAUGGCCUGCUGAACUGGGAUGUGGAACUGUGGCGGGUGGAGAGGUCAACAGAGGAUUGAGCAUCA
B2: chr2:219567793:219567894:-|CDS|ENSG00000124006|msi1|FALSE|unique (ssRNA)
RNA: GGGAGUUCUACAGUCCGACGAUCCCUGCCCCGGAAGCUCGACGUCCUGGAAGGAGAGAAUGCUGUGCUGCUAGUGGAAACUCUAGAGGCCGGGGUCGAGGGACGCUGGAGCCGUGAUGGGGAGGAGCUGCCGGUCAUCUGCCACAACAGAGGAUUGAGCAUCA
B3: chr17:41691520:41691533:+|3pUTR|ENSG00000173812|msi1_unk|total|mutant (ssRNA)
RNA: GGGAGUUCUACAGUCCGACGAUCGGAACAAAUCUCAAACUGAUCCAUCAGUCAUGCCGCCCGCUGCCGAGCUUGCAACUUAACCGCAGCAGCUGCCCAAUGCCAUGUGAAGUAACAAACUGGUUUUUGGUUUUUUUUUCCCCUCAACAGAGGAUUGAGCAUCA
B4: chr8:103427116:103427218:+|CDS|ENSG00000164934|unk|total|mutant (ssRNA)
RNA: GGGAGUUCUACAGUCCGACGAUCGUAUACUGGGAUUGAUCAUCACUGGAAAGAAGCUGUUUUUGCCACAUGUGGACAGCAAGCCGACAUUUGGGAUGAACAAAGAACUAAUCCUAUAUGUUCAAUGACCUGGGGAUUUGACAGCAACAGAGGAUUGAGCAUCA
B5: chr11:102396659:102396760:-|3pUTR|ENSG00000152558|msi1_unk|FALSE|overlapping (ssRNA)
RNA: GGGAGUUCUACAGUCCGACGAUCCUUUUUCUCUGUAUGUAAGUAGUAUAAUUUGUUACUUUCAAAUACCCGUACUUUGAAUGUAGGUUUUUUUGUUGUUGUUAUCUAUAAAAAUUGAGGGAAAUGGUUAUGCAAAAAAAUAUUCAACAGAGGAUUGAGCAUCA
B6: ENSG00000198589:be:win_7901|CDS|ENSG00000198589|bound_else_gene|NA|bound_elsewhere_windowed (ssRNA)
RNA: GGGAGUUCUACAGUCCGACGAUCCUCGUUCUGAGUCAUAUAUUGGGGGAAAUUGCUACAUUCUCUCAGGGUCACGUGAUGCAACUCUUUUGCUGUGGUAUUGGAAUGGAAAAUGCAGUGGGAUUGGAGAUAACCCAGGCAGUGCAACAGAGGAUUGAGCAUCA

These binders were tested against MSI1 full-length (mouse, UniProt Q61474 1-362) (assay: nsRBNS (natural sequence RNA bind-n-seq); RBNS binding buffer (assumed for nsRBNS): 25 mM Tris pH 7.5, 150 mM KCl, 3 mM MgCl2, 0.01% Triton X-100, 500 ug/ml BSA, 20 U/ml SUPERase-In, 4 C; UNK is unkempt and MSI1 is Musashi-1; names of the RNAs are library labels; protein concentration not given here; high values mean tight binding).
Chain of UniProt Q61474 (Q61474 whole entry): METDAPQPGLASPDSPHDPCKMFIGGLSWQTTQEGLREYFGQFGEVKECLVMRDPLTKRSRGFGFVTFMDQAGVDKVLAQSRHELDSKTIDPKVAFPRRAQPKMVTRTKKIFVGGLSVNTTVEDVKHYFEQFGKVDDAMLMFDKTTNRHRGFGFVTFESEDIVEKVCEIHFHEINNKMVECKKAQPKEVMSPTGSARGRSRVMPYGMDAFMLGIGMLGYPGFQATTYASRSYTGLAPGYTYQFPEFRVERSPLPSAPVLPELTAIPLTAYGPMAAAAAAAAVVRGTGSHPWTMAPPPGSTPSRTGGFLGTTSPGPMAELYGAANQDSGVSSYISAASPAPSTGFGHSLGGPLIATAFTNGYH
B1 showed a binding signal of 0.62 enrichment R. In the case of B2, the binding signal is reported as 0.382 enrichment R. Binder B3 has a binding signal of 0.422 enrichment R. B4 was tested, and the binding signal was 0.362 enrichment R. Work on B5 yielded a binding signal of 2.82 enrichment R. In the case of B6, the binding signal is reported as 0.503 enrichment R.
